Data on one molecule can be found in US20240301085A1 (SIMCERE ZAIMING PHARMACEUTICAL, published 2024).

Assay [1] concerns the target T1, monkey GPC3, full length, on HEK293T cells (monkey).
T1 construct: whole, on cells; also called HEK293T-monkey GPC3 cells; HEK293T-cynoGPC3
Kind of assay: FACS on HEK293T-monkey GPC3 cells. How it is done:
Data analysis was performed by software (FlowJo) to obtain the mean fluorescence intensity (MFI) of the cells. Then, analysis was performed by software (GraphPad Prism8), data were fitted, and EC₅₀ values were calculated.

Assay [2] deals with T2, murine GPC3-His protein (murine, UniProt Q8CFZ4 25-558, limits assumed).
T2 construct: Bought protein; also called murine GPC3 protein; not shown: His tag
The experiment in a line: ELISA, coated murine GPC3-His, antibody 1 nM. As for the experimental part:
(§1) After incubation at 37° C. for 2 h, the plate was washed 3 times with PBS.
(In general: An ELISA detects its analyte on a solid surface through an enzyme-linked reagent.)

In assay [3] the target is T2, murine GPC3-His protein. The experiment in a line: ELISA, coated murine GPC3-His, antibody 10 nM. As for the experimental part:
as §1

Assay [4] concerns the target T2, murine GPC3-His protein. Kind of assay: ELISA, coated murine GPC3-His, antibody 0.1 nM. How it is done: as §1
Assay [5] concerns the target T2, murine GPC3-His protein. Kind of assay: ELISA, coated murine GPC3-His, antibody 100 nM. How it is done: as §1
The target of assay [6] is T2, murine GPC3-His protein. Kind of assay: ELISA, coated murine GPC3-His, antibody 0.01 nM. As for the experimental part:
as §1

Assay [7] has as its target T2, murine GPC3-His protein. Kind of assay: ELISA, coated murine GPC3-His, antibody 0.001 nM. How it is done: as §1
Assay [8] addresses T2, murine GPC3-His protein. The experiment in a line: ELISA, coated murine GPC3-His, antibody 0.0001 nM. How it is done: as §1

T2 sequence (Q8CFZ4 25-558 limits assumed): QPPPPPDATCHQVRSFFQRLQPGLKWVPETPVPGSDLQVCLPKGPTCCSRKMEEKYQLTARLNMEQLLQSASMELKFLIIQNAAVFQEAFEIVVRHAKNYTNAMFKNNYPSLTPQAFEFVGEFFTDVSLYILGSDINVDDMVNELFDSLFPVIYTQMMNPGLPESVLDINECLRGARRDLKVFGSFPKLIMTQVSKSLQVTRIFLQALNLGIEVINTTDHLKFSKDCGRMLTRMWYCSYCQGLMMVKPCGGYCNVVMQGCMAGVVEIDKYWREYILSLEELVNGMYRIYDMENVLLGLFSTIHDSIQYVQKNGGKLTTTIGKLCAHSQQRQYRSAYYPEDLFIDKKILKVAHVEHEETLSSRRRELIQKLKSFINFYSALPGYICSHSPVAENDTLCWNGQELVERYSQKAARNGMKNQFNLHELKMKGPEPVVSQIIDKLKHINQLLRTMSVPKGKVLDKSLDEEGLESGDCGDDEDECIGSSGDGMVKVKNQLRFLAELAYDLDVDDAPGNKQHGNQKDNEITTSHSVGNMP

B1: T2-23 scFv-hFc (Fc fusion)
scFv: QSALTQPPSASGSPGQSVTISCTGTSSDVGGYNYVSWYQQYPGKAPKLLIYGNSNRPSGVPDRFSGSKSGTSASLAITGLQAEDGADYYCQSYDSSLRVVFGGGTKVTVLGGGGGSGGGGSGGGGSQVQLQESGGGLVQPGRSLRLSCAASGFTFSSYAMHWVRQAPGKGLEWVSAISSSGRSTYYADSVEGRFTISRDNSKNTLYLQMNSLRAEDTAVYYCAKDRRGSHADALNVWGQGTLVTVSS[here human IgG1 Fc with changes without letters]
notes: Control antibody in the form scFv-human IgG1 Fc; also called antibody T2-23
For the molecule B1, in assay [1], it took 0.56 nM to reach a half-maximal effect (EC50). Also, in assay [1], the “Max MFI” value came to 36700. Further, the OD450 was found to be 1.5 with murine GPC3-His protein [2]; 1.7 in the assay with murine GPC3-His protein [3]; 0.99 with murine GPC3-His protein [4]; 1.71 with murine GPC3-His protein [5]; 0.26 with murine GPC3-His protein [6]; 0.07 with murine GPC3-His protein [7]. The OD450 with murine GPC3-His protein [8] amounted to 0.05.

As usually defined, the EC50 is the concentration at which the effect is half-maximal.
